The other results are listed elsewhere or left out. These are further read-outs of the screen, such as a control signal, another cell line or another target. No call is given for them.
Tests used:
Experiment in all cases: Primary Screen for Target Class Profiling of Small Molecule Inhibitors of Methyltransferases
[1] = target: Glycine N-methyltransferase (Homo sapiens) (UniProt Q14749); details: purified enzyme, MTase-Glo SAH luminescence; measured here: GNMT inhibition; at 40 µM; stronger effect = lower value
Method in brief: (§1)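 Each enzyme was reacted with SAM and its substrate, with compounds tested once at 40 uM; SAH formed was read by MTase-Glo luminescence.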

[2] = target: Guanidinoacetate N-methyltransferase (Homo sapiens) (UniProt Q14353); details: purified enzyme, MTase-Glo SAH luminescence; measured here: GAMT inhibition; at 40 µM; stronger effect = lower value
Method in brief: as §1

[3] = target: Histamine N-methyltransferase (Homo sapiens) (UniProt P50135); details: purified enzyme, MTase-Glo SAH luminescence; measured here: HNMT inhibition; at 40 µM; stronger effect = lower value
Method in brief: as §1

[4] = target: Nicotinamide N-methyltransferase (Homo sapiens) (UniProt P40261); details: purified enzyme, MTase-Glo SAH luminescence; measured here: NNMT inhibition; at 40 µM; stronger effect = lower value
Method in brief: as §1

[5] = target: Phenylethanolamine N-methyltransferase (Homo sapiens) (UniProt P11086); details: purified enzyme, MTase-Glo SAH luminescence; measured here: PNMT inhibition; at 40 µM; stronger effect = lower value
Method in brief: as §1
% is set by controls: 0 for no effect and ±100 for the full control effect.

Row | Structure (SMILES) | activity change, negative = inhibition [1] | activity change, negative = inhibition [2] | activity change, negative = inhibition [3] | activity change, negative = inhibition [4] | activity change, negative = inhibition [5]
1 | CC(C)OCCCn1c(=O)c2ccccc2n2c(SCC(=O)Nc3ccc(F)cc3)nnc12 | -1.39% | 6.26% | -0.311% | -3.42% | 1.71%
2 | Cn1c(CCNC(=O)CC2CCOCC2)nc2ccccc21 | -0.812% | -9.08% | 3.7% | -1.25% | 2.05%
3 | O=C(NCCCc1ccccc1)c1nc2sccn2c1-c1cccc(C(F)(F)F)c1 | -3.64% | -7.26% | -4.73% | -16.8% | -4.46%
4 | COc1ccc(OC)c(S(=O)(=O)N2CCC(C)CC2)c1 | -0.01% | 3.55% | 3% | 1.9% | -3.67%
5 | C=C1[C@@H]2[C@H]3OC(=O)C(=C)[C@@H]3CC[C@@](C)(O)[C@@H]2C[C@@H]1O[C@@H]1O[C@H](CO)[C@@H](O)[C@H](O)[C@H]1O | -0.561% | -3.77% | 4.39% | -12.2% | 2.41%
6 | CN1CC(=O)N(C2CCNCC2)Cc2c(NCCCO)ncnc21 | -2.11% | -1.89% | -4.02% | -3.27% | -13.4%
7 | CC(C(=O)NCc1cccc(F)c1)n1ccc2cc(S(=O)(=O)N3CCCCC3)ccc21 (centres undefined) | 5.59% | 0% | 8.6% | 6.61% | 6.51%
8 | COc1ccc2cc3n(c2c1)CC(C)(C(=O)NCC1CCCO1)N(Cc1ccccc1)C3=O (centres undefined) | -2.86% | 3.5% | 0.723% | -2.08% | -0.001%
9 | CS(=O)(=O)c1ccc([C@H](CC2CCCC2)C(=O)Nc2nccs2)cc1 | 1.72% | -0.298% | 6.25% | -20.2% | -8.11%
10 | CC1=C[C@@H](CNC(=O)C(C)(C)C)[C@H](C(C)C)C[C@H]1Cc1nnc(-c2ccncc2)o1 | -9.67% | -5.35% | -10.7% | -20.4% | -8.28%
11 | CCOc1ccccc1CN1CCN(Cc2nccn2CC)CC1CCO (centres undefined) | -5.89% | -4.88% | -3.31% | -7.05% | -1.03%
12 | C=CCn1c(=O)c2ccc(C(=O)NC(C)C)cc2n2c(=O)n(CC(=O)Nc3c(C)cccc3C)nc12 | 3.51% | 0.091% | 3.87% | 3.67% | -1.57%
13 | CC(C)n1c(=O)c2ccc(C(=O)NC3CCCCC3)cc2n2c(=O)n(CC(=O)c3ccc(F)cc3)nc12 | 6.82% | 2.85% | 12.7% | 1.9% | 6.29%
14 | CC(C)CCNC(=O)C1(C)Cn2c(cc3ccccc32)C(=O)N1CCc1ccco1 (centres undefined) | -10.9% | 1.07% | -2.37% | -12.3% | -1.78%
15 | O=c1c2ccccc2n2c(SCc3ccc(F)cc3)nnc2n1CCc1ccccc1 | -5.88% | -3.36% | -2.45% | -7.62% | -7.09%
16 | CC(=O)N(C1CC1)C1CCOC2(CCN(C(=O)Cn3c(=O)oc4ccccc43)CC2)C1 (centres undefined) | -1.11% | -0.571% | 2.32% | 2.79% | -0.889%
17 | CCOC(=O)C1CCN(C(=O)c2ccc3nccn3c2)CC1 | -0.755% | 1.68% | 3.06% | -1.57% | -5.91%
18 | Cc1ncc(Cl)cc1NCc1ccc(C(=O)N[C@@H](CC2CCCC2)C(=O)NC2CC2)s1 | -9.5% | – | 6.91% | -15.5% | 19.7%
19 | O=C(C1CN(C2CCCC2)C(=O)N1)N1CCN(c2ncccn2)CC1 (centres undefined) | -0.795% | 0.549% | 1.66% | -2.49% | 2.05%

Row | Structure (SMILES) | activity change, negative = inhibition [1] | activity change, negative = inhibition [2] | activity change, negative = inhibition [3] | activity change, negative = inhibition [4] | activity change, negative = inhibition [5]
20 | C=CCn1c(=O)c2c(nc(-c3ccc(S(=O)(=O)O)cc3)n2C)n(C)c1=O | 3.37% | 7.48% | 13% | -5.25% | 3.79%
21 | CCn1c(CN(C)C)nnc1C1CCN(C(=O)Cn2nc(C)cc2N)CC1 | -5% | -6.79% | -1.78% | -7.86% | -7.55%
22 | COCCNC(=O)[C@H]1C[C@H](Oc2ccccc2)CN1Cc1ccncc1 | -4.98% | -8.93% | -2.75% | -10.4% | -5.49%
23 | CC(C)(O)C1CC=C(C(=O)OCC2OC(Oc3c(O)cc(C(=O)O)cc3O)C(O)C(O)C2O)CC1 (centres undefined) | 0.961% | 3.37% | 9.12% | -9.08% | 3.6%
24 | O=C(NCc1ccccc1)c1ccc2c(=O)nc3c(-c4ccccc4)n[nH]n3c2c1 | -26% | 2.85% | -0.543% | -0.485% | -5.14%
25 | CCc1ccc(NC(=O)CSc2nnc3n(CCC(C)C)c(=O)c4ccccc4n23)cc1 | -1.17% | 5.12% | 2.12% | -6.33% | 2.14%
26 | OC[C@H]1O[C@@H](Oc2cc(O)cc(-c3cc4ccc(O)cc4o3)c2)[C@H](O)[C@@H](O)[C@@H]1O | 0.483% | 0.51% | 7.46% | -8.18% | 4.21%
27 | OC1(c2csc(CN3CCOCC3)n2)CCN(Cc2ccc(F)cc2)CC1 | -1.19% | -1.66% | 1.38% | -1.71% | -4.56%
28 | CN1C(=O)c2cc(C(=O)N3CCCCC3)nn2CC1(C)C(=O)NCc1ccccc1 (centres undefined) | 4.35% | 0% | 4.67% | 5.31% | 1.1%
29 | CCOc1ccc(N(C(=O)c2ccc(Cl)cc2)S(=O)(=O)c2ccc3c(c2)n(C)c(=O)n3C)cc1 | -5.31% | 3.6% | -3.83% | -4.36% | -4.19%
30 | CC1CCCC(NC(=O)C2(C)Cn3c(ccc3-c3ccco3)C(=O)N2Cc2cccs2)C1C (centres undefined) | 1.73% | 0% | 4.61% | -11.1% | 1.31%
31 | CC1(C(=O)NC2CCCCC2)Cn2nc(-c3ccco3)cc2C(=O)N1Cc1ccco1 (centres undefined) | -7.64% | 2.7% | -4.78% | -3.26% | -4.61%
32 | Nc1nc(CCC(=O)N[C@@H]2[C@@H](Cc3ccccc3)[C@H]3OCC[C@@H]23)cs1 | -4.45% | -5.34% | -1.5% | -8.85% | -8.94%
33 | CCCn1c(=O)c2ccc(C(=O)NC3CCCC3)cc2n2c(=O)n(CC(=O)NC3CCCC3)nc12 | 5.68% | 0% | 11.1% | 1.52% | 3.27%
34 | Cc1noc(C)c1CC(=O)N1CCCn2ccnc2C1c1ccccc1 (centres undefined) | 2.24% | -2.13% | -0.362% | -1.45% | -10.8%
35 | COc1ccccc1CN1C(=O)c2nc3ccccc3n2CC1(C)C(=O)NC1CCCCCC1 (centres undefined) | -4.14% | 3.18% | 1.32% | -11.5% | -5%
36 | C[C@@H]1CN(C(=O)c2cccc(N3CCNC3=O)c2)C[C@@]1(O)C1CC1 | -4.75% | -6.84% | -2.56% | -7.84% | -3.12%
37 | COCCCNc1nc2c(-c3cccc(C)c3)nnn2c2ccccc12 | -6.62% | 4.56% | -0.417% | 1.92% | -5.86%
38 | CN1CCN(C(=O)N2CCC3(CCCN(C4CCCC4)C3=O)C2)CC1 (centres undefined) | -4.01% | -6.93% | -1.07% | -11.6% | -7.53%

Row | Structure (SMILES) | activity change, negative = inhibition [1] | activity change, negative = inhibition [2] | activity change, negative = inhibition [3] | activity change, negative = inhibition [4] | activity change, negative = inhibition [5]
39 | COCC(=O)NC[C@H]1CCN(Cc2ccccn2)C[C@H]1N(C)C | -4.51% | -7.14% | -0.633% | -14.9% | -7.27%
40 | C[C@@H]1O[C@@H](O[C@H]2[C@H](OC(=O)[C@]34CCC(C)(C)C[C@H]3C3=CCC5[C@@]6(C)C[C@H](O)[C@H](O[C@@H]7O[C@H](C(=O)O)[C@@H](O)[C@H](O)[C@H]7O)[C@@](C)(CO)C6[C@H](O)C[C@@]5(C)[C@]3(C)C[C@H]4O)O[C@@H](CO)[C@@H]2O)[C@H](O)[C@H](O)[C@H]1O[C@@H]1OC[C@@H](O)[C@H](O[C@H]2OC[C@](O)(CO)[C@H]2O)[C@H]1O (some centres undefined) | -2.29% | -6.66% | 2.89% | -13.9% | 0.641%
41 | O=C1NCCOCCCN(S(=O)(=O)c2cccs2)[C@H]2CCCC[C@@H]12 | -4.73% | -6.9% | -2.55% | -12.1% | -12%
42 | COC[C@@H]1CN(Cc2cnn(C(C)C)c2)C[C@H]1C(=O)NC1CC1 | 0.271% | 0.266% | 0.662% | 1.66% | 0.386%
43 | COc1ccc(-c2nc3c(c(=O)[nH]2)CCN(C(=O)Nc2ccccc2Cl)C3)cc1 | -19.8% | -3.51% | -5.74% | -9.16% | 8.54%
44 | O=S(=O)(c1ccc(S(=O)(=O)n2cnc3ccccc32)cc1)N1CCCCCC1 | 2.19% | 2.35% | -2.22% | -17.9% | -8.06%
45 | CCN1CCc2nc(N)oc2CC1 | -14.8% | 12.2% | -29.1% | -1.42% | 2.87%
46 | O=C(O)C(O[C@@H]1O[C@H](CO[C@@H]2O[C@H](CO)[C@@H](O)[C@H](O)[C@H]2O)[C@@H](O)[C@H](O)[C@H]1O)c1ccccc1 (some centres undefined) | 0% | 6.17% | 10.2% | -2.1% | 5.68%
47 | CCC(C)/C=C(C)/C=C/C1=CC2=C(Cl)C(=O)C(C)(OC(C)=O)C(=O)C2=CN1C(CCCN=C(N)N)C(=O)O (centres undefined) | -5.91% | 3.43% | 4.94% | -9.4% | -5.76%
48 | CCCNC(=O)N1CCCC(c2nc(CCOc3ccc(F)cc3)no2)C1 (centres undefined) | -2.35% | 2.06% | -0.213% | -1.27% | 0.058%
49 | O=S(=O)(c1ccccc1)c1nnn2c1nc(N1CCCC1)c1cc(Cl)ccc12 | -2.33% | 0% | 3.67% | -6.9% | -2%
50 | CCc1cc2c(cc3n2CC(C)(C(=O)NC2CCC(C)CC2)N(Cc2ccc(Cl)cc2)C3=O)s1 (centres undefined) | 4.32% | -0.214% | 5.99% | 4.14% | 2.7%
51 | CC1(C)OC(=O)C=C[C@@]2(C)C1CC(=O)[C@]1(C)C2CC[C@@]2(C)[C@H](c3ccoc3)OC(=O)[C@H]3O[C@]321 (some centres undefined) | -0.569% | -1.81% | 2.28% | -17% | 0.039%
52 | C=C(COC(=O)C(O)C(O)CN)C12OC1C1(C)C(=CC2=O)C(O)C(O)CC1C (centres undefined) | 0% | 16.3% | 10% | 1.66% | 6.78%
53 | CC(=O)N1CC2(CCCN2Cc2cccc(C(N)=O)c2)Cc2ccccc21 (centres undefined) | -8.78% | -6.85% | -9.24% | -12.4% | -10.2%
54 | COC(=O)c1ncn2c1C(=O)N(Cc1ccc(C)cc1)C(C)(C(=O)NC1CCCCCC1)C2 (centres undefined) | 7.92% | 4.2% | 8.01% | 8.87% | 6.79%
55 | CCC(C)NC(=O)c1ccc2c(=O)n(C)c3nnc(SCc4cccc(F)c4)n3c2c1 (centres undefined) | 6.87% | 0% | 6.29% | 9.88% | 3.71%
56 | CC1(C(=O)NC2CCCCC2)Cn2c(nc3ccccc32)C(=O)N1Cc1cccnc1 (centres undefined) | -2.92% | 4.76% | -0.52% | -0.605% | -0.98%
57 | C[N+](C)(C)CCOC(=O)CCC(=O)OCC[N+](C)(C)C | 0.064% | 11.1% | 2.08% | -4.95% | 8.34%

Reference: PubChem BioAssay AID1745853 (National Center for Advancing Translational Sciences (NCATS), 2022)
